# Assay results reported in PubChem BioAssay (Tox21).
# Where “and” joins values, the source holds several entries; their conditions need not be identical. Equal entries are not always repeated. Inconclusive means that the source gave no clear call. Such entries were picked first, then a sample of the others. For some assays here: Potencies of inconclusive entries are doubtful fits and often do not repeat. Calls of active or inactive are those of the source. Unless noted, the call rests on the fitted dose curve; in most records, active means well fitted curve in the direction sought with a large enough effect in the repeat runs; inconclusive means weak or mixed curves; inactive means no such curve, though single readings can be large; an effect the other way counts as inactive or inconclusive.
# How the values were obtained:
# [1] = qHTS assay to identify small molecule agonists of the endoplasmic reticulum stress response signaling pathway - cell viability counter screen (AID 1159517; calls by dose curve; further: nearly all actives have a fitted effect of over 50% in size; further: potency means the concentration at half of the fitted maximal effect)
# Outline: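 ESRE-bla HeLa cells, 1,500 per well, seeded overnight then treated with compounds for 5 hr at 37 C. After the beta-lactamase read, viability in the same wells is measured by CellTiter-Glo luminescence after 30 min at room temperature.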
# [2] = qHTS assay to identify small molecule agonists of the AP-1 signaling pathway - cell viability counter screen (AID 1159525; calls by dose curve; further: potency means the concentration at half of the fitted maximal effect; nearly all actives have a fitted effect of over 55% in size)
# Outline: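 AP-1-bla ME-180 cells in Opti-MEM with 0.5% dialyzed FBS, compound exposure 5 h at 37 C in 15-point titration. Viability read in the same wells as ATP content by CellTiter-Glo luminescence, normalised to tetra-n-octylammonium bromide and DMSO controls.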
# [3] = qHTS assay to identify small molecule agonists of the AP-1 signaling pathway (AID 1159526; calls by dose curve; further: potency means the concentration at half of the fitted maximal effect; on activation: on the % scale 0 is the no-effect control and ±100 the full control effect); settings: ME-180 (cervical carcinoma) AP-1-bla reporter, beta-lactamase FRET ratio, 5 h; activation: at 76.8 µM (top of the series) unless noted
# [4] = molecular target: Retinoic acid receptor RXR-alpha (Homo sapiens) (UniProt P19793); assay: qHTS assay to identify small molecule agonists of the RXR signaling pathway (AID 1159527; calls by dose curve; further: nearly all actives have a fitted effect of over 35% in size; further: potency means the concentration at half of the fitted maximal effect; on activation: on the % scale 0 is the no-effect control and ±100 the full control effect); settings: HEK293T RXRa-UAS-bla, beta-lactamase ratio, 16 h; activation: at 76.8 µM (top of the series) unless noted
# UniProt P19793, sequence (P19793 whole entry, looked up): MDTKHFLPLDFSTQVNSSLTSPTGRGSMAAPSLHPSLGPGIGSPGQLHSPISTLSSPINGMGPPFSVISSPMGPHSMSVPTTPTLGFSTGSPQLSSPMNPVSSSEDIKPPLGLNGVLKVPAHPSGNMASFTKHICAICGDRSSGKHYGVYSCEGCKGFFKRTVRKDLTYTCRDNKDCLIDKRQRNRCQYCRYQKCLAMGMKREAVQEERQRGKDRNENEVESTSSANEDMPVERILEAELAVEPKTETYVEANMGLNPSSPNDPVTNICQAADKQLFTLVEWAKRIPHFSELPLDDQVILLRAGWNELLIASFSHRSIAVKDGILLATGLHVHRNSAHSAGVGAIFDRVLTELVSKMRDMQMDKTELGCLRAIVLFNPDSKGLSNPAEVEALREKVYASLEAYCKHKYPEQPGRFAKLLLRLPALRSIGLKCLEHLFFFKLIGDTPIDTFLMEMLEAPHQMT
# Outline: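 Agonist mode; 9-cis retinoic acid positive control. HEK 293T UAS-bla reporter cells, 2% charcoal-stripped FBS, 16 hr compound exposure at 37 C/5% CO2. LiveBLAzer B/G FRET substrate 2 hr RT; ex 405, em 460/530 nm.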
# [5] = qHTS assay to identify small molecule antagonists of the retinoid acid receptor (RAR) signaling pathway - cell viability counter screen (AID 1159551); further: potency means the concentration at half of the fitted maximal effect; nearly all actives have a fitted effect of over 35% in size
# Outline: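 Seed C3RL4 cells; next day add compound, then retinol to 1 uM final; incubate 6 h at 37 C; add CellTiter-Glo; read luminescence after 30 min at RT.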
# [6] = molecular target: Nuclear receptor ROR-gamma (Homo sapiens) (UniProt P51449); assay: qHTS assay to identify small molecule antagonists of the retinoid-related orphan receptor gamma (ROR-gamma) signaling pathway (AID 1159521; further: potency means the concentration at half of the fitted maximal effect; nearly all actives have a fitted effect of over 50% in size)
# Outline: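 Luminescence readout (ONE-Glo, 30 min RT) after 16 h doxycycline induction; loss of signal scored as antagonism. CHO cells with TET-inducible RORγ and RORE-LUC reporter; compounds added 2 h before 1 uM final doxycycline.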
# [7] = qHTS assay to identify small molecule antagonists of the constitutive androstane receptor (CAR) signaling pathway - cell viability counter screen (AID 1224837); further: nearly all actives have a fitted effect of over 45% in size; further: potency means the concentration at half of the fitted maximal effect
# Outline: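 Using CellTiter-Fluor, viability is scored in HepG2 cells stably carrying hCAR and a 2.2kb CYP2B6 reporter after 23 hr compound exposure across 15 concentrations, with CITCO present at 50 nM.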
# [8] = qHTS assay to identify small molecule agonists of the RXR signaling pathway - cell viability counter screen (AID 1159529); further: potency means the concentration at half of the fitted maximal effect; nearly all actives have a fitted effect of over 50% in size
# Outline: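 Luminescence from CellTiter-Glo (30 min, RT) measured viability in the same wells as the beta-lactamase reporter readout. Cells: GeneBLAzer RXR-alpha HEK 293T, 2% charcoal-stripped FBS. Compound exposure 16 hr, 37 C.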
# [9] = qHTS assay to identify small molecule antagonists of the retinoic acid receptor (RAR) signaling pathway (AID 1159552; further: potency means the concentration at half of the fitted maximal effect; nearly all actives have a fitted effect of over 50% in size)
# Outline: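 Luminescence from a RARE luciferase reporter in C3RL4 cells served as read-out. Cells received compounds together with 1 uM final retinol and incubated 6 hr at 37 C before detection reagent was added for 30 min at room temperature.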
# [10] = qHTS assay to identify small molecule agonists of the retinoic acid receptor (RAR) signaling pathway (AID 1159553); settings: C3RL4 RARE luciferase reporter, agonist, 6 h; activation: at 73.3 µM (top of the series) unless noted; further: potency means the concentration at half of the fitted maximal effect
# Outline: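 Activation of retinol signaling was monitored via a RARE luciferase reporter in C3RL4 cells. After 6 hr compound treatment at 37 C, detection reagent was added for 30 min at room temperature before luminescence reading.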
# [11] = qHTS assay to identify small molecule agonists of the constitutive androstane receptor (CAR) signaling pathway - cell viability counter screen (AID 1224836); further: potency means the concentration at half of the fitted maximal effect; nearly all actives have a fitted effect of over 45% in size
# Outline: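 Viability read-out: CellTiter-Fluor fluorescence after 23 h compound exposure at 37 C/5% CO2 in double-stable HepG2-CYP2B6-hCAR cells, with PK11195 present at 0.75 uM final; compounds tested in 15-point titration.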
# [12] = qHTS assay to identify small molecule antagonists of the estrogen related receptor signaling pathway with the pleiotropic PPARgamma coactivator (PGC) cell viability counter screen (AID 1224822; further: potency means the concentration at half of the fitted maximal effect)
# Outline: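 Compounds in DMSO, with positive and negative controls, were applied to PGC/ERR cells (2,000/well) and left 17.5 h at 37 C before CellTiter-Fluor detection.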
# [13] = qHTS assay to identify small molecule antagonists of the estrogen related receptor (ERR) signaling pathway from Tox21 library - cell viability counter screen (AID 1224834); further: potency means the concentration at half of the fitted maximal effect; nearly all actives have a fitted effect of over 30% in size
# Outline: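 CellTiter-Fluor fluorescence measured; ERR cells; 17.5 h compound incubation at 37 C; 30 min reagent step.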
# [14] = molecular target: Luciferin 4-monooxygenase (Photinus pyralis) (UniProt P08659); assay: qHTS assay to identify small molecule inhibitors of firefly luciferase (AID 1224835); further: potency means the concentration at half of the fitted maximal effect; nearly all actives have a fitted effect of over 25% in size
# UniProt P08659, sequence (P08659 whole entry, looked up): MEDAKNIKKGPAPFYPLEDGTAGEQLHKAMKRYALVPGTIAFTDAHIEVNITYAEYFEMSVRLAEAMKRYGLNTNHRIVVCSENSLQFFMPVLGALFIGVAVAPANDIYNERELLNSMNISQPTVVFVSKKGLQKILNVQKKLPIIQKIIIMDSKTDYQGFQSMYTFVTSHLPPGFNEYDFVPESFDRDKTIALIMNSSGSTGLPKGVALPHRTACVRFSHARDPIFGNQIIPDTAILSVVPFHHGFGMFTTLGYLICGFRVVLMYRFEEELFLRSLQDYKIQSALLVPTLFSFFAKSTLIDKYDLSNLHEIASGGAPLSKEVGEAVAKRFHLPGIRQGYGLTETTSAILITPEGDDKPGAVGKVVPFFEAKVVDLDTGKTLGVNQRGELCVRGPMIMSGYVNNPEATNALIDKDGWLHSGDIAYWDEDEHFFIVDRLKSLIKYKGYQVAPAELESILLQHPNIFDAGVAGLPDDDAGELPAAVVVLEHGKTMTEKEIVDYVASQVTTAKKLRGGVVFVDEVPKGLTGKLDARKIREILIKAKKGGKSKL
# Outline: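 Biochemical qHTS: compounds run as interplate titrations against purified firefly enzyme, with D-luciferin and ATP each at its KM concentration. Light output recorded by CCD imaging.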
# [15] = qHTS assay to identify small molecule antagonists of the estrogen related receptor (ERR) signaling pathway (AID 1224819; further: nearly all actives have a fitted effect of over 50% in size; further: potency means the concentration at half of the fitted maximal effect)
# Outline: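 qHTS in ERR cells, 2,000/well, 1536 format. Cpd (DMSO) added after 6 h settle, 18 h 37 C. One-Glo luminescence, 30 min RT.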
# [16] = tested on: estrogen-related receptor alpha (ERRalpha) with PGC-1alpha coactivator, human; assay: qHTS assay to identify small molecule antagonists of the estrogen related receptor signaling pathway with the pleiotropic PPARgamma coactivator (PGC) (AID 1224821; calls by dose curve)
# Outline: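 Luminescent read-out (One-Glo, 30 min at room temperature) following 18 h treatment of PGC/ERR cells at 37 C with compounds delivered in DMSO. Cells had settled 6 h at 37 C/5% CO2 before dosing.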
# [17] = qHTS assay to identify small molecule antagonists of the estrogen related receptor (ERR) signaling pathway - cell viability counter screen (AID 1224818);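 further: viability measured after 17.5 h of compound exposure; on the % scale 0 is the no-effect control and ±100 the full control effect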
# Outline: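 In the same ERR cell assay, compound-treated wells (17.5 h, 37 C) were multiplexed with a fluorogenic viability reagent, CellTiter-Fluor, read after 30 min to flag cytotoxic substances.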
# [18] = qHTS assay to identify small molecule agonists of the estrogen related receptor (ERR) signaling pathway (AID 1224820); further: on the % scale 0 is the no-effect control and ±100 the full control effect
# Outline: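 Cells: ERR line from NTP, 2,000/well. Pre-incubation 6 h, 37 C/5% CO2. Compound (DMSO) pin transfer, 18 h 37 C. One-Glo, 30 min RT, luminescence.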
# Tags describe the fitted curve by direction and shape or compound fluorescence and quenching.
compound,measurement,setting,value
CCCCCCCCn1sccc1=O,Potency,[1],"inconclusive: 61.8 µM [cytotoxic, partial curve, poor fit] and inconclusive: 913 nM [cytotoxic, full curve, poor fit]"
same,Potency,[2],active: 5.51 µM and active: 5.13 µM
same,Potency,[3],"inconclusive: 3.1 µM [falling, full curve]"
same,activation,[3],inconclusive: 28.7%
same,Potency,[4],"inconclusive: 1.95 µM [partial curve] and inconclusive: 57.6 µM [cytotoxic, single point]"
same,Potency,[5],active: 68.7 µM and active: 64.1 µM
NCC(O)c1ccc(O)cc1 (stereo unspecified),Potency,[1],inactive
same,Potency,[6],"inconclusive: 30.2 µM [inhibitor, single point]"
same,Potency,[3],inactive
same,Potency,[7],inactive
O=C1C(Cl)=C(Cl)C(=O)c2ccccc21,Potency,[1],active: 19.6 µM and active: 49 µM
same,Potency,[6],active: 4.87 µM and active: 12.2 µM
same,Potency,[3],"inconclusive: 9.8 µM [falling, full curve] and inconclusive: 15.5 µM [falling, full curve]"
same,Potency,[4],inconclusive: 7.79 µM [full curve] and inconclusive: 7.76 µM
same,Potency,[8],active: 12.3 µM and active: 17.4 µM
same,Potency,[5],active: 21.8 µM and active: 24.3 µM
same,Potency,[9],active: 21.8 µM and active: 19.3 µM
same,Potency,[10],"inconclusive: 13.7 µM [inhibitor, full curve] and inconclusive: 13.7 µM [inhibitor]"
same,Potency,[11],"inconclusive: 17.3 µM [rising, partial curve]"
Nc1c(Cl)c(Cl)nc(C(=O)O)c1Cl,Potency,[1],"inconclusive: 68.4 µM [cytotoxic, single point] and inconclusive: 160 nM [cytotoxic, full curve, poor fit]"
same,Potency,[6],"inconclusive: 28.1 µM [inhibitor, full curve]"
same,Potency,[4],"inconclusive: 38.5 µM [fluorescent, partial curve, poor fit] and inconclusive: 40.1 µM [activator, partial curve]"
same,activation,[4],inconclusive: 10.4%
C[C@@H]1O[C@@H](O[C@H]2C[C@@H](O)[C@]3(CO)[C@H]4[C@H](O)C[C@]5(C)[C@@H](C6=CC(=O)OC6)CC[C@]5(O)[C@@H]4CC[C@]3(O)C2)[C@H](O)[C@H](O)[C@H]1O,Potency,[1],"inconclusive: 16.5 nM [cytotoxic, full curve] and inconclusive: 151 nM [cytotoxic, full curve]"
same,Potency,[6],"inconclusive: 65.1 µM [inhibitor, single point] and inconclusive: 16.8 µM [inhibitor, partial curve, poor fit]"
same,Potency,[2],"inconclusive: 0.12 µM [cytotoxic, full curve]"
same,Potency,[3],"inconclusive: 0.329 µM [activator, full curve, poor fit]"
same,Potency,[8],"inconclusive: 92.8 nM [cytotoxic, full curve] and inconclusive: 107 nM [cytotoxic, full curve]"
same,Potency,[12],inconclusive: 0.196 µM [cytotoxic]
same,Potency,[11],active: 231 nM and active: 266 nM
same,Potency,[7],"inconclusive: 259 nM [cytotoxic, full curve] and inconclusive: 211 nM [cytotoxic, full curve]"
C[C@]12C=CC3=C4CCC(=O)C=C4CC[C@H]3[C@@H]1CC[C@@H]2O,Potency,[1],"inconclusive: 38.6 µM [cytotoxic, partial curve, poor fit]"
same,Potency,[6],"inconclusive: 46.1 µM [inhibitor, partial curve, poor fit]"
same,Potency,[2],"inconclusive: 24.4 µM [cytotoxic, partial curve, poor fit]"
same,Potency,[3],inactive
same,Potency,[8],"inconclusive: 46.5 µM [cytotoxic, single point]"
same,Potency,[13],inconclusive: 60.7 µM [cytotoxic]
same,Potency,[14],"inconclusive: 79.1 µM [inhibitor, single point]"
ClC1=C(Cl)[C@]2(Cl)[C@@H]3[C@@H]4C[C@@H]([C@H]5O[C@@H]45)[C@@H]3[C@@]1(Cl)C2(Cl)Cl,Potency,[1],active: 54.9 µM
same,Potency,[6],active: 19.3 µM
same,Potency,[2],active: 43.6 µM
same,Potency,[3],inconclusive: 24.5 µM
same,Potency,[4],inconclusive: 54.9 µM [cytotoxic]
same,Potency,[8],inconclusive: 19.5 µM [cytotoxic]
same,Potency,[9],active: 27.3 µM
same,Potency,[10],"inconclusive: 54.5 µM [inhibitor, partial curve, poor fit]"
same,Potency,[15],inconclusive: 30.6 µM [inhibitor]
same,Potency,[16],inconclusive: 51.4 µM [inhibitor]
same,Potency,[12],inactive
CS(=O)(=O)c1ccc(C(=O)C2C(=O)CCCC2=O)c([N+](=O)[O-])c1,Potency,[1],"inconclusive: 17.7 µM [rising, partial curve]"
same,Potency,[6],"inconclusive: 1.39 µM [inhibitor, single point]"
same,Potency,[3],"inconclusive: 35.3 µM [activator, partial curve]"
same,Potency,[4],"inconclusive: 8.87 µM [fluorescent, full curve, poor fit]"
same,Potency,[17],inactive
same,Potency,[15],inactive
same,Potency,[18],inactive
